Target: DrDXPS (H304A) (Deinococcus radiodurans, UniProt Q9RUB5, H304A)
Details: site-directed mutagenesis study

OCc1cn(Cc2ccc(Cl)c(Cl)c2)c2ccccc12 [Compound 7]
activity against DrDXPS H304A mutant: retained some activity

Cc1ncc(Cc2csc(CCO)c2C)c(N)n1 [DZT, deazathiamine, reference compound]
activity against DrDXPS H304A mutant: completely lost its activity

— paper PMC9491098, “Discovery of novel drug-like antitubercular hits targeting the MEP pathway enzyme DXPS by strategic application of ligand-based virtual screening” (Chemical Science, 2022)
